Source: patent publication US20200079850A1 (SUTRO BIOPHARMA, published 2020)

Biological target: T1, hPD1 (Acro Biosystems), SPR analyte (human, UniProt Q15116 fragment)
T1 construct: also called human PD1 kinetics
Test: SPR (Biacore), antibody captured by anti-Fc, hPD1 as analyte, 25 C
Experimental: Anti-Fc polyclonal antibodies were immobilized onto a CMS chip (GE Life Sciences) using amine coupling chemistry (from Amine Coupling Kit, GE Life Sciences). The immobilization steps were carried out at a flow rate of 25 μl/min in 1×HBS-EP+buffer (GE Life Sciences; 10× Stock diluted before use). The sensor surfaces were activated for 7 min with a mixture of NHS (0.05 M) and EDC (0.2 M). The Anti-Fc antibodies were injected over all 4 flow cells at a concentration of 25 ug/ml in 10 mM sodium acetate, pH 4.5, for 7 min. Ethanolamine (1 M, pH 8.5) was injected for 7 min to block any remaining activated groups. An average of 12,000 response units (RU) of capture antibody was immobilized on each flow cell.
Kinetic binding experiments were performed at 25° C. using 1×HBS-EP+buffer. Test and control antibodies were injected over the anti-Fc surface at concentrations of 5-10 μg/mL for 12 seconds at a flow rate of 10 μl/min on flow cells 2, 3 and 4, followed by a buffer wash for 30 seconds at the same flow rate. Kinetic characterization of antibody samples was carried out with a dilution series of antigen and 1 injection of 0 nM antigen. After capturing ligand (antibody) on the anti-Fc surface, the analyte (hPD1 or hLAG3, Acro Biosystems, Newark, Del.) was bound at 100, 25, 6.25 and 0 nM for 180 seconds, followed by a 450 second dissociation phase at a flow rate of 50 μl/min. Between each ligand capture and analyte binding cycle, regeneration was carried out using 2 injections of 10 mM Glycine pH 2.0 for 30 seconds at 30 μL/min, followed by a 30 second buffer wash step.
The data was fit with the Biacore T200 Evaluation software, using a 1:1 Langmuir binding model. KD (affinity, nM) was determined as a ratio of the kinetic rate constants calculated from the fits of the association and dissociation phases.

T1 sequence (Q15116 25-167 limits assumed): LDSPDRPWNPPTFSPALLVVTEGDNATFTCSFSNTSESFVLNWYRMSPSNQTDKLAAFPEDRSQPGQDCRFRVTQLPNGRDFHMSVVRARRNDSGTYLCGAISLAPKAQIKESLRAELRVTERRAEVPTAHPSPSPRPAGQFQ

B1: Construct N: 1353-G10 R28T/P30D/H31S zwB × 1449-G09.2 Fab zwA (bispecific antibody, human IgG1, kappa)
scFv: EVQLVQSGAEVKKPGASVKVSCKASGYTFDSYGISWVRQAPGQGLEWMGWISAYNGNTNYAQKLQGRVTMTTDTSTNTAYMELRSLRSDDTAVYYCARDVDYGTGSGYWGQGTLVTVSSGGGGSGGGGSGGGGSSYELTQPPSVSVSPGQTARITCSGDALPKQYAYWYQQKPGQAPVMVIYKDTERPSGIPERFSGSSSGTKVTLTISGVQAEDEADYYCQSADNSITYRVFGGGTKVTVLAAGSDQ[no letters for human IgG1 Fc with changes]
heavy: MQVQLVESGGGVVQPGRSLRLSCAASGFTFSSYGMHWVRQAPGKGLEWVAVIWYDGSYKYYADSVKGRFTISRDNSKNTLYLQMNSLRAEDTAVYYCAREEAPENWDYALDVWGQGTTVTVSSASTKGPSVFPLAPSSKSTSGGTAALGCLVKDYFPEPVTVSWNSGALTSGVHTFPAVLQSSGLYSLSSVVTVPSSSLGTQTYICNVNHKPSNTKVDKKVEPKSCDKTHTCPPCPAPELLGGPSVFLFPPKPKDTLMISRTPEVTCVVVDVSHEDPEVKFNWYVDGVEVHNAKTKPREEQYNSTYRVVSVLTVLHQDWLNGKEYKCKVSNKALPAPIEKTISKAKGQPREPQVYVYPPSREEMTKNQVSLTCLVKGFYPSDIAVEWESNGQPENNYKTTPPVLDSDGSFALVSKLTVDKSRWQQGNVFSCSVMHEALHNHYTQKSLSLSPGK
light: [no letters for about 100 residues][no letters for about 120 residues]
notes: I assembled the PD-1 scFvFc chain from the named parts
- Kd: 4.01 nM
- kon: 1.38e+06 M⁻¹ s⁻¹

B2: Construct J: aPD1 1353-G10 R28T/P30D zwB × aLAG3 1449-G09.2 Fab zwA (bispecific antibody, human IgG1, kappa)
scFv: EVQLVQSGAEVKKPGASVKVSCKASGYTFDHYGISWVRQAPGQGLEWMGWISAYNGNTNYAQKLQGRVTMTTDTSTNTAYMELRSLRSDDTAVYYCARDVDYGTGSGYWGQGTLVTVSSGGGGSGGGGSGGGGSSYELTQPPSVSVSPGQTARITCSGDALPKQYAYWYQQKPGQAPVMVIYKDTERPSGIPERFSGSSSGTKVTLTISGVQAEDEADYYCQSADNSITYRVFGGGTKVTVLAAGSDQ[no letters for human IgG1 Fc with changes]
heavy: MQVQLVESGGGVVQPGRSLRLSCAASGFTFSSYGMHWVRQAPGKGLEWVAVIWYDGSYKYYADSVKGRFTISRDNSKNTLYLQMNSLRAEDTAVYYCAREEAPENWDYALDVWGQGTTVTVSSASTKGPSVFPLAPSSKSTSGGTAALGCLVKDYFPEPVTVSWNSGALTSGVHTFPAVLQSSGLYSLSSVVTVPSSSLGTQTYICNVNHKPSNTKVDKKVEPKSCDKTHTCPPCPAPELLGGPSVFLFPPKPKDTLMISRTPEVTCVVVDVSHEDPEVKFNWYVDGVEVHNAKTKPREEQYNSTYRVVSVLTVLHQDWLNGKEYKCKVSNKALPAPIEKTISKAKGQPREPQVYVYPPSREEMTKNQVSLTCLVKGFYPSDIAVEWESNGQPENNYKTTPPVLDSDGSFALVSKLTVDKSRWQQGNVFSCSVMHEALHNHYTQKSLSLSPGK
light: [no letters for about 100 residues][no letters for about 120 residues]
- Kd: 1.19 nM
- koff: 0.00109 s⁻¹

B3: Construct K: a1353-G10 R28T/P30T/H31S zwB × 1449-G09.2 Fab zwA (bispecific antibody, human IgG1, kappa)
scFv: EVQLVQSGAEVKKPGASVKVSCKASGYTFTSYGISWVRQAPGQGLEWMGWISAYNGNTNYAQKLQGRVTMTTDTSTNTAYMELRSLRSDDTAVYYCARDVDYGTGSGYWGQGTLVTVSSGGGGSGGGGSGGGGSSYELTQPPSVSVSPGQTARITCSGDALPKQYAYWYQQKPGQAPVMVIYKDTERPSGIPERFSGSSSGTKVTLTISGVQAEDEADYYCQSADNSITYRVFGGGTKVTVLAAGSDQ[no letters for human IgG1 Fc with changes]
heavy: MQVQLVESGGGVVQPGRSLRLSCAASGFTFSSYGMHWVRQAPGKGLEWVAVIWYDGSYKYYADSVKGRFTISRDNSKNTLYLQMNSLRAEDTAVYYCAREEAPENWDYALDVWGQGTTVTVSSASTKGPSVFPLAPSSKSTSGGTAALGCLVKDYFPEPVTVSWNSGALTSGVHTFPAVLQSSGLYSLSSVVTVPSSSLGTQTYICNVNHKPSNTKVDKKVEPKSCDKTHTCPPCPAPELLGGPSVFLFPPKPKDTLMISRTPEVTCVVVDVSHEDPEVKFNWYVDGVEVHNAKTKPREEQYNSTYRVVSVLTVLHQDWLNGKEYKCKVSNKALPAPIEKTISKAKGQPREPQVYVYPPSREEMTKNQVSLTCLVKGFYPSDIAVEWESNGQPENNYKTTPPVLDSDGSFALVSKLTVDKSRWQQGNVFSCSVMHEALHNHYTQKSLSLSPGK
light: [no letters for about 100 residues][no letters for about 120 residues]
- Kd: 5.3 nM
- koff: 0.00724 s⁻¹
- kon: 1.37e+06 M⁻¹ s⁻¹

B4: Construct L: 1353-G10 R28D/P30T/H31S zwB × 1449-G09.2 Fab zwA (bispecific antibody, human IgG1, kappa)
scFv: EVQLVQSGAEVKKPGASVKVSCKASGYDFTSYGISWVRQAPGQGLEWMGWISAYNGNTNYAQKLQGRVTMTTDTSTNTAYMELRSLRSDDTAVYYCARDVDYGTGSGYWGQGTLVTVSSGGGGSGGGGSGGGGSSYELTQPPSVSVSPGQTARITCSGDALPKQYAYWYQQKPGQAPVMVIYKDTERPSGIPERFSGSSSGTKVTLTISGVQAEDEADYYCQSADNSITYRVFGGGTKVTVLAAGSDQ[no letters for human IgG1 Fc with changes]
heavy: MQVQLVESGGGVVQPGRSLRLSCAASGFTFSSYGMHWVRQAPGKGLEWVAVIWYDGSYKYYADSVKGRFTISRDNSKNTLYLQMNSLRAEDTAVYYCAREEAPENWDYALDVWGQGTTVTVSSASTKGPSVFPLAPSSKSTSGGTAALGCLVKDYFPEPVTVSWNSGALTSGVHTFPAVLQSSGLYSLSSVVTVPSSSLGTQTYICNVNHKPSNTKVDKKVEPKSCDKTHTCPPCPAPELLGGPSVFLFPPKPKDTLMISRTPEVTCVVVDVSHEDPEVKFNWYVDGVEVHNAKTKPREEQYNSTYRVVSVLTVLHQDWLNGKEYKCKVSNKALPAPIEKTISKAKGQPREPQVYVYPPSREEMTKNQVSLTCLVKGFYPSDIAVEWESNGQPENNYKTTPPVLDSDGSFALVSKLTVDKSRWQQGNVFSCSVMHEALHNHYTQKSLSLSPGK
light: [no letters for about 100 residues][no letters for about 120 residues]
- Kd: 5.18 nM
- koff: 0.00777 s⁻¹
- kon: 1.5e+06 M⁻¹ s⁻¹

B5: Construct M: 1353-G10 R28T/P30T/H31D zwB × 1449-G09.2 Fab zwA (bispecific antibody, human IgG1, kappa)
scFv: EVQLVQSGAEVKKPGASVKVSCKASGYTFTDYGISWVRQAPGQGLEWMGWISAYNGNTNYAQKLQGRVTMTTDTSTNTAYMELRSLRSDDTAVYYCARDVDYGTGSGYWGQGTLVTVSSGGGGSGGGGSGGGGSSYELTQPPSVSVSPGQTARITCSGDALPKQYAYWYQQKPGQAPVMVIYKDTERPSGIPERFSGSSSGTKVTLTISGVQAEDEADYYCQSADNSITYRVFGGGTKVTVLAAGSDQ[no letters for human IgG1 Fc with changes]
heavy: MQVQLVESGGGVVQPGRSLRLSCAASGFTFSSYGMHWVRQAPGKGLEWVAVIWYDGSYKYYADSVKGRFTISRDNSKNTLYLQMNSLRAEDTAVYYCAREEAPENWDYALDVWGQGTTVTVSSASTKGPSVFPLAPSSKSTSGGTAALGCLVKDYFPEPVTVSWNSGALTSGVHTFPAVLQSSGLYSLSSVVTVPSSSLGTQTYICNVNHKPSNTKVDKKVEPKSCDKTHTCPPCPAPELLGGPSVFLFPPKPKDTLMISRTPEVTCVVVDVSHEDPEVKFNWYVDGVEVHNAKTKPREEQYNSTYRVVSVLTVLHQDWLNGKEYKCKVSNKALPAPIEKTISKAKGQPREPQVYVYPPSREEMTKNQVSLTCLVKGFYPSDIAVEWESNGQPENNYKTTPPVLDSDGSFALVSKLTVDKSRWQQGNVFSCSVMHEALHNHYTQKSLSLSPGK
light: [no letters for about 100 residues][no letters for about 120 residues]
- Kd: 4.91 nM
- koff: 0.0102 s⁻¹
- kon: 2.07e+06 M⁻¹ s⁻¹

B6: Construct O: 1353-G10 R28T/H31D zwB × 1449-G09.2 Fab zwA (bispecific antibody, human IgG1, kappa)
scFv: EVQLVQSGAEVKKPGASVKVSCKASGYTFPDYGISWVRQAPGQGLEWMGWISAYNGNTNYAQKLQGRVTMTTDTSTNTAYMELRSLRSDDTAVYYCARDVDYGTGSGYWGQGTLVTVSSGGGGSGGGGSGGGGSSYELTQPPSVSVSPGQTARITCSGDALPKQYAYWYQQKPGQAPVMVIYKDTERPSGIPERFSGSSSGTKVTLTISGVQAEDEADYYCQSADNSITYRVFGGGTKVTVLAAGSDQ[no letters for human IgG1 Fc with changes]
heavy: MQVQLVESGGGVVQPGRSLRLSCAASGFTFSSYGMHWVRQAPGKGLEWVAVIWYDGSYKYYADSVKGRFTISRDNSKNTLYLQMNSLRAEDTAVYYCAREEAPENWDYALDVWGQGTTVTVSSASTKGPSVFPLAPSSKSTSGGTAALGCLVKDYFPEPVTVSWNSGALTSGVHTFPAVLQSSGLYSLSSVVTVPSSSLGTQTYICNVNHKPSNTKVDKKVEPKSCDKTHTCPPCPAPELLGGPSVFLFPPKPKDTLMISRTPEVTCVVVDVSHEDPEVKFNWYVDGVEVHNAKTKPREEQYNSTYRVVSVLTVLHQDWLNGKEYKCKVSNKALPAPIEKTISKAKGQPREPQVYVYPPSREEMTKNQVSLTCLVKGFYPSDIAVEWESNGQPENNYKTTPPVLDSDGSFALVSKLTVDKSRWQQGNVFSCSVMHEALHNHYTQKSLSLSPGK
light: [no letters for about 100 residues][no letters for about 120 residues]
- Kd: 4.44 nM
- koff: 0.00748 s⁻¹
- kon: 1.68e+06 M⁻¹ s⁻¹
